According to the supplement of paper PMC11417369:
± gives the standard deviation of the averaged measurements. This is one part of the list.

Each sequence was assayed on PfAP2-I AP2 domain 3 (GST-tagged) (assay: gcPBM binding intensity (ln(normalized median fluorescence intensity)); higher = stronger DNA binding).
Procedure, shortened: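 For binding intensity, the highest Masliner-normalised natural-log median intensity across replicate spots of either probe orientation was taken. Protein bound to the array was stained with Alexa488 anti-GST antibody and scanned at 488 nm. The protein, GST-tagged P. falciparum DNA-binding domains from E. coli at about 25 μg on average, had been applied for 1 h to an Agilent 4 × 180k array of primer-extended double-stranded 36-bp intergenic genomic probes and negative controls.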

Sequence | gcPBM binding intensity (ln)
ATTAAAAGTTTATACAAATAAAAAACAAAACAAAAA [CACACA_negctrl_site1030] | 7.7 ± 0.55
AGCCAAACCTTAAATTTAGCAATAAGTTTACAGGTC [CACACA_negctrl_site360] | 7.4 ± 0.64
TATATATGCATATACATACACACATAACACATACGT [CACACA_site3833] | 8.24 ± 0.39
AATGTTTTATTTTGAAGTACATTTAAGAATTTTTTA [XGTACX_site7814] | 7.61 ± 0.47
TTATGTTCTTTAAAACCACACACCCCCCAACCCCCC [CACACA_site8742] | 10.9 ± 0.44
TATGAAATTATAATTACACACAGGAAAATAAAATGT [CACACA_site1517] | 8.29 ± 0.64
ATATAATAATAAGGCACACAAATTAAAATATAAAAA [CACACA_site3710] | 9.87 ± 0.67
CATTTCATTTCTTAATGTACTTTATTCCACCACATA [XGTACX_site5943] | 8.34 ± 0.16
TTTATTATTATATTATTTTAATTTTTCTTTAGTACA [GTGCAC_negctrl_site392] | 7.46 ± 0.57
AAATTAAATAAATTTACACACTAAAAATTACATATA [CACACA_site1054] | 7.67 ± 0.33
ATAAATATATGAAGTTGTACAAATAATTAACATTAT [XGTACX_site5740] | 7.78 ± 0.45
TACCATGTTCAAATTACACACATATAATCTAATATA [CACACA_site2008] | 7.75 ± 0.47
ATTTTTTTTAATTTGTACAAATTTTGTTCACAATTT [CACACA_negctrl_site1301] | 7.89 ± 0.67
TATGTTAAAAAAAAATGTACATATGTTTTTGTTAAA [XGTACX_site4754] | 7.74 ± 0.57
ATACATTCAAAATATACACACATATATATATAATAT [CACACA_site950] | 7.91 ± 0.44
TTTCCCCCATATAATGAACACACACCCTCCTCATAA [CACACA_site8110] | 9.22 ± 0.26
GACCCATTATTTTATTGTACTTTTATTATAACGTGA [XGTACX_site156] | 8.26 ± 0.4
AAATGAATAATGATATACAAACAAATCATGTGTTAA [XGTACX_negctrl_site150] | 7.33 ± 0.59
ATGTGTGTATACATCAATTATATATATATTATGTAT [GTGCAC_negctrl_site720] | 7.91 ± 0.51

Sequence | gcPBM binding intensity (ln)
AAAATAAAAATAACAACACACATATACTATAATATT [CACACA_site2769] | 7.61 ± 0.48
ATAATATAGAACAATACATGCAAATGGCTTAAATTT [TGCATGCA_site521] | 7.69 ± 0.81
GGAAGCTAATTACACACATGCATATTTTTTTTTCAA [TGCATGCA_site548] | 8.16 ± 0.83
ATGGGACAGATATATACACACATATAAATATAAATA [CACACA_site6684] | 7.81 ± 0.38
AAAGGGACATATATATCACACACAAAAATTAGTCCC [CACACA_site8897] | 7.78 ± 0.63
TAATATCTACATATATGTACATATATATATATATAT [XGTACX_site7979] | 9.11 ± 0.23
TTATATATGTATTAATGTACATAGTTGAGAAAGGTA [XGTACX_site1511] | 8.12 ± 0.54
TACAAAATACAAAAATGTACATAAAAATTTATAAAA [XGTACX_site6861] | 7.78 ± 0.6
TACAGATACGGACACACACACACACCCAGACAAAAA [CACACA_site4432] | 8.3 ± 0.16
ATATTAAAATATAATCGTACAATTAAATTTTTTTTT [XGTACX_site2739] | 7.55 ± 0.44
AATAAATAAAAAATTACACACATATTTATAAATATA [CACACA_site7584] | 7.49 ± 0.46
AAGATAAACTTTTTTAATTAATTTAATTTTTTTTTT [GTGCAC_negctrl_site386] | 7.21 ± 0.67
TTATAATAGTTAATATGTACATATTTAATAAATAAT [XGTACX_site3183] | 7.75 ± 0.3
CCCCCCCACGAACACACACACATACATACCACATAT [CACACA_site7149] | 10.2 ± 0.17
TAAAATAAGTTAAAAAGTACATAATTATAATAAATA [XGTACX_site8108] | 7.58 ± 0.5
CACAAAAATAAATATAAACACACAATAAATAAATAA [CACACA_site8197] | 7.72 ± 0.81
ATATATATATATATTCCACACACACCCAAAAAAAAA [CACACA_site9215] | 9.44 ± 0.33
TTTGTTTTTATTTACACATGCAAAAAAAAAAAAAAA [TGCATGCA_site655] | 8.3 ± 0.73
TATGTGTATAATAAAAGTACATATATTATTATATAA [XGTACX_site8556] | 7.79 ± 0.29

Sequence | gcPBM binding intensity (ln)
TATTTCGTAATTTAATAATATACAAGAAATATATAT [XGTACX_negctrl_site143] | 7.47 ± 0.45
CATATAATAAAAAATGTACACACATAAGAAAATTTA [CACACA_site8943] | 7.86 ± 0.44
TAAAATAATAAAACAACACACAAATAGTTAAAATAG [CACACA_site1680] | 7.93 ± 0.59
ATTGACGTCATATAAACATGCACATTTTGGATGTTT [TGCATGCA_site985] | 7.82 ± 0.74
TTTTTTTTAAATTGTGGTACACAAATTCATATATAT [XGTACX_site8944] | 8 ± 0.23
TAAATATAATAAGAACAAACAAAATAGTACAATATA [TGCATGCA_negctrl_site364] | 7.97 ± 0.45
GTCATATTATTATTACGTACTTAAATATATAATATA [XGTACX_site3405] | 7.95 ± 0.24
AAAAGAAAAAAAAGTACACACATGTATATTAATCGT [CACACA_site2528] | 8.11 ± 0.67
TGTTAACTTAAAAAAATACCTACGGAAAAATCACAA [TGCATGCA_negctrl_site433] | 7.67 ± 0.64
AAAATGATAATACCAAGTACACATATGAAAAATACA [XGTACX_site6763] | 7.92 ± 0.52
TAAATCATTTATTAAGTGCAATATTCTTTTTGAGAT | 10.3 ± 0.28
TGTTTTCCCTTTAGTGTGCACGTATTTCTATTAACA [GTGCAC_site9847] | 10.5 ± 0.18
TAAAAACATTTAAATTGTACGGAAATAAAAATTTTT [XGTACX_site8225] | 7.71 ± 0.48
ATATAAATATTAAATACACACATTTTTGATTAGGTT [CACACA_site7461] | 7.67 ± 0.36
ATATAATTTGATGGTTAACACACATATATATTATAT [CACACA_site8775] | 7.72 ± 0.48
TCATATAATCAAATATGTACATATTTTCAATTGAAT [XGTACX_site6831] | 7.7 ± 0.47
ATATTTATTTAATGAACACACGATATATTATTTTAT [CACACA_site1602] | 7.79 ± 0.54
TTATTTATTTTTTATACACACAATTATCTTTTTAAG [CACACA_site6162] | 7.8 ± 0.58
